Measurements: PubChem BioAssay AID504937 (National Center for Advancing Translational Sciences (NCATS), 2011)
Hit rate of the full screen: of about 340,000 compounds, about 20 (0.006%) were called active. The inconclusive results got no clear call from the source; some entries with a clear call stand among them for comparison. Calls come from the whole dose curve; as a rule, active = well fitted inhibition curve with a large enough effect; inconclusive = small, poorly fitted or top-dose-only effect; inactive = no such curve, though single readings can be large or run the other way. Where the call is inconclusive, the potency comes from a doubtful curve fit.

biological target: Sphingomyelin phosphodiesterase (Homo sapiens) (UniProt P17405); assay: Inhibitors of Secretory Acid Sphingomyelinase (S-ASM): qHTS; conditions: placental ASM, HMU-PC fluorogenic substrate (series up to 57.5 µM), 60 min; activity change, negative = inhibition: at the top concentration
How it was run: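 Human placenta-derived ASM preincubated with compound 10 min at room temperature, then reacted with 9 uM (final) fluorogenic HMU-PC substrate for 60 min at 37 C. Stop solution raises pH to 10; fluorescence read at Ex 386/Em 447 nm.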
Potency is the fitted concentration of half-maximal effect; tags give direction and shape of the fitted curve.

Sequence of UniProt P17405 (P17405 whole entry, looked up): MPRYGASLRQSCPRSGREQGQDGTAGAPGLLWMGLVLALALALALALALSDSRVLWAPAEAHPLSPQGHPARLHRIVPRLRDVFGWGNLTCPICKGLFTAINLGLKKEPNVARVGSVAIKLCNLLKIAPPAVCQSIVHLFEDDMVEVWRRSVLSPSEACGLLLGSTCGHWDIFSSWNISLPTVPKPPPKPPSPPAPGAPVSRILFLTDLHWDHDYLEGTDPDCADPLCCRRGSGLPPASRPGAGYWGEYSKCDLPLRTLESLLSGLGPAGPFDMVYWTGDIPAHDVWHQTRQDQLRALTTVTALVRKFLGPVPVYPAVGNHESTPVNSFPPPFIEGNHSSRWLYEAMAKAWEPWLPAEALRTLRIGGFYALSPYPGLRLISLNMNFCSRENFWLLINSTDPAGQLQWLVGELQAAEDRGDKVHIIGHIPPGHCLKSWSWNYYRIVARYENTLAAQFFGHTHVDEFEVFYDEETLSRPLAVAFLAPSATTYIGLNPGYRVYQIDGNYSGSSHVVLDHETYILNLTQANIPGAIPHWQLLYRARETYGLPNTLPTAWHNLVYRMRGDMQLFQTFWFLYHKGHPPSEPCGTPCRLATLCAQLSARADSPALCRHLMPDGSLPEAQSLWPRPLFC

SMILES	Potency	activity change, negative = inhibition
COc1ccc(COC(=O)c2cc([N+](=O)[O-])ccc2N2CCOCC2)cc1F	inconclusive: 708 µM [inhibitor, partial curve, poor fit]	–
N#C/C(=N\Nc1ccc(Cl)cc1)C(N)=S	inconclusive: 447 µM [inhibitor, partial curve, poor fit]	–
CC(C)(C)c1ccc(C(=O)NCC(=O)OCCN2C(=O)c3ccccc3C2=O)cc1	–	inactive: 1.58%
CCOc1ccc(-c2nnc(Nc3ccc(OC)c(C(=O)N4CCCCC4)c3)c3ccccc23)cc1	inconclusive: 2240 µM [inhibitor, partial curve, poor fit]	–
Cc1nc2c(=O)[nH]c(=S)n(C)c2nc1C	inconclusive: 5620 µM [inhibitor, partial curve, poor fit]	–
O=c1[nH]c(C2CCN(S(=O)(=O)c3ccccc3F)CC2)nc2c1nnn2Cc1ccc(OC(F)(F)F)cc1	inconclusive: 178 µM [inhibitor, partial curve, poor fit]	–
COC(=O)C1=C(C)N(Cc2ccccc2)C(=NCc2cccc(C(F)(F)F)c2)N[C@H]1c1cccc(C(F)(F)F)c1	inconclusive: 50.1 µM [inhibitor, partial curve, poor fit]	–
O=C1CC(N2CCN(c3nc4ccccc4s3)CC2)C(=O)N1Cc1cccs1 (configuration not stated)	inconclusive: 224 µM [inhibitor, partial curve, poor fit]	–
Cc1ccc(NS(=O)(=O)c2cc(NC(=O)c3ccc4c(c3)NC(=O)CS4)ccc2Cl)c(C)c1	inconclusive: 112 µM [inhibitor, partial curve, poor fit]	–
NS(=O)(=O)c1ccc(Nc2nc3ccccc3nc2NS(=O)(=O)c2cccc([N+](=O)[O-])c2)cc1	inconclusive: 89.1 µM [inhibitor, single point]	–
CCOc1ccc(CN(C)Cc2cc(=O)oc3c(C)c(C)ccc23)cc1OC	–	inactive: -0.758%
CCOC(=O)C(=Cc1ccc(OCc2ccc([N+](=O)[O-])cc2)c(OC)c1)C(=O)OCC	–	inactive: -4.41%
CCN(CC)CCC(=O)N1c2ccccc2Sc2ccc(NC(=O)OC)cc21	–	inactive: 5.94%
Cn1c(=O)c(N)c2c3c(c(Br)ccc31)C(=O)c1ccccc1-2	inconclusive: 355 µM [inhibitor, partial curve, poor fit]	–
CCC(c1nnnn1Cc1ccco1)N1CCN(C(=O)c2ccco2)CC1 (configuration not stated)	–	inactive: 3.88%
COc1cc(-c2nnc(COc3ccc(Cl)cc3C)o2)cc(OC)c1OC	–	inactive: -17.3%
COC(=O)c1c(-c2ccc(C)cc2)csc1NC(=O)C1CC=CCC1C(=O)O (configuration not stated)	inconclusive: 89.1 µM [inhibitor, single point]	–
